For 20 test systems, MIC results are on record in the supplement of paper PMC6657886.

MIC of clinical N. gonorrhoeae isolates (2015-2017) by agar dilution on GC agar with 1% IsoVitaleX (ranges not stated); higher = less susceptible. No active / inactive call per row; the paper counts benzylpenicillin above 1 and ceftriaxone above 0.125 mg/L as resistant (EUCAST). The method is stated for benzylpenicillin and ceftriaxone and assumed for the other drugs. '<=' is inferred from pile-ups at the end values. Isolates are numbered anew.

Common to all, as to experiment: Agar dilution on enriched GC agar; resistance determinants by microarray.
For orientation: Agar dilution tests growth on a series of plates holding different concentrations.

Compound in assay [1]: CC[C@H]1OC(=O)[C@H](C)[C@@H](O[C@H]2C[C@@](C)(OC)[C@@H](O)[C@H](C)O2)[C@H](C)[C@@H](O[C@@H]2O[C@H](C)C[C@H](N(C)C)[C@H]2O)[C@](C)(O)C[C@@H](C)CN(C)[C@H](C)[C@@H](O)[C@]1(C)O [azithromycin]
Compound in assay [2]: CN(C)[C@@H]1C(O)=C(C(N)=O)C(=O)[C@@]2(O)C(O)=C3C(=O)c4c(O)cccc4[C@@](C)(O)[C@H]3C[C@@H]12 [tetracycline]
Compound in assay [3]: CC1(C)S[C@@H]2[C@H](NC(=O)Cc3ccccc3)C(=O)N2[C@H]1C(=O)O [benzylpenicillin]
Compound in assay [4]: CN[C@@H]1[C@H](O)[C@H](NC)[C@H]2O[C@@]3(O)C(=O)C[C@@H](C)O[C@H]3O[C@@H]2[C@H]1O [spectinomycin]
Compound in assay [5]: CO/N=C(\C(=O)N[C@@H]1C(=O)N2C(C(=O)O)=C(CSc3nc(=O)c(O)nn3C)CS[C@H]12)c1csc(N)n1 [ceftriaxone]

The term MIC denotes the least concentration at which growth counts as inhibited. In the case of “Neisseria gonorrhoeae isolate 35 (blaTEM plasmid: no, gyrA: wild type, mtrR promoter: wild type, parC: wild type, penA: ins345Asp, ponA: wild type, porB: wild type, rpsJ: wild type, tetM plasmid: no)”, the MIC in assay [1] was 0.03 µg/mL; in assay [2], 0.25 µg/mL; in assay [3], ≤ 0.015 µg/mL; in assay [4], 8 µg/mL; in assay [5] it was ≤ 0.002 µg/mL.

As for “Neisseria gonorrhoeae isolate 477 (blaTEM plasmid: no, gyrA: wild type, mtrR promoter: wild type, parC: wild type, penA: ins345Asp, ponA: Pro421, porB: wild type, rpsJ: Met57, tetM plasmid: no)”, the MIC was 0.12 µg/mL in assay [1]; 0.5 µg/mL in assay [2]; 0.12 µg/mL in assay [3]; 16 µg/mL in assay [4]; ≤ 0.002 µg/mL in assay [5].

Regarding “Neisseria gonorrhoeae isolate 177 (blaTEM plasmid: no, gyrA: Phe91, Asn 95, mtrR promoter: -35delA, parC: wild type, penA: ins345Asp, ponA: Pro421, porB: Asn120, Asp121, rpsJ: Met57, tetM plasmid: no)”, the MIC was 0.12 µg/mL in assay [1]; 2 µg/mL in assay [2]; 2 µg/mL in assay [3]; 16 µg/mL in assay [4]; 0.015 µg/mL in assay [5].

On to “Neisseria gonorrhoeae isolate 311 (blaTEM plasmid: no, gyrA: Thr91, Gly95, mtrR promoter: wild type, parC: wild type, penA: wild type, ponA: wild type, porB: wild type, rpsJ: wild type, tetM plasmid: no)”, for which the MIC in assay [1] was found to be 0.06 µg/mL; in assay [2], 0.03 µg/mL; in assay [3], 0.12 µg/mL; in assay [4], 16 µg/mL; in assay [5], 0.004 µg/mL.

For the test system “Neisseria gonorrhoeae isolate 33 (blaTEM plasmid: no, gyrA: wild type, mtrR promoter: wild type, parC: wild type, penA: wild type, ponA: wild type, porB: wild type, rpsJ: wild type, tetM plasmid: no)”, the MIC in assay [1] is 0.06 µg/mL; in assay [2], 0.12 µg/mL; in assay [3] it was ≤ 0.015 µg/mL; in assay [4] it was 16 µg/mL; in assay [5] it was ≤ 0.002 µg/mL.

Regarding “Neisseria gonorrhoeae isolate 227 (blaTEM plasmid: no, gyrA: wild type, mtrR promoter: wild type, parC: wild type, penA: wild type, ponA: wild type, porB: wild type, rpsJ: wild type, tetM plasmid: no)”, the minimal inhibitory concentration (MIC) in assay [1] was 0.25 µg/mL; in assay [2], 0.25 µg/mL; in assay [3], ≤ 0.015 µg/mL; in assay [4] it was 16 µg/mL; in assay [5], ≤ 0.002 µg/mL.

For the test system “Neisseria gonorrhoeae isolate 430 (blaTEM plasmid: no, gyrA: Phe91, Asn95, mtrR promoter: -35delA, parC: Arg87, Glu91, penA: ins345Asp, ponA: Pro421, porB: wild type, rpsJ: Met57, tetM plasmid: no)”, the MIC in assay [1] turned out to be 0.5 µg/mL; in assay [2], 2 µg/mL; in assay [3] it was 0.5 µg/mL; in assay [4], 16 µg/mL; in assay [5], 0.008 µg/mL.

For the test system “Neisseria gonorrhoeae isolate 44 (blaTEM plasmid: yes, gyrA: wild type, mtrR promoter: wild type, parC: wild type, penA: ins345Asp, ponA: wild type, porB: wild type, rpsJ: wild type, tetM plasmid: yes)”, the MIC in assay [1] is 0.06 µg/mL; in assay [2], 32 µg/mL; in assay [3], 16 µg/mL; in assay [4], 16 µg/mL; in assay [5], ≤ 0.002 µg/mL.

For the test system “Neisseria gonorrhoeae isolate 339 (blaTEM plasmid: no, gyrA: wild type, mtrR promoter: wild type, parC: wild type, penA: ins345Asp, ponA: wild type, porB: wild type, rpsJ: wild type, tetM plasmid: no)”, the MIC in assay [1] came to 0.03 µg/mL; in assay [2], 0.06 µg/mL; in assay [3], 0.06 µg/mL; in assay [4] it was 8 µg/mL; in assay [5] it was 0.004 µg/mL.

As to “Neisseria gonorrhoeae isolate 449 (blaTEM plasmid: no, gyrA: wild type, mtrR promoter: wild type, parC: wild type, penA: ins345Asp, ponA: wild type, porB: wild type, rpsJ: wild type, tetM plasmid: no)”, the MIC in assay [1] was determined as 0.03 µg/mL; in assay [2] it was 0.06 µg/mL; in assay [3], 0.06 µg/mL; in assay [4] it was 4 µg/mL; in assay [5] it was 0.004 µg/mL.

On to “Neisseria gonorrhoeae isolate 89 (blaTEM plasmid: no, gyrA: wild type, mtrR promoter: wild type, parC: wild type, penA: ins345Asp, ponA: wild type, porB: wild type, rpsJ: wild type, tetM plasmid: no)”, for which the MIC in assay [1] came out at 0.06 µg/mL; in assay [2], 1 µg/mL; in assay [3], 0.25 µg/mL; in assay [4], 8 µg/mL; in assay [5], 0.008 µg/mL.

“Neisseria gonorrhoeae isolate 244 (blaTEM plasmid: no, gyrA: wild type, mtrR promoter: wild type, parC: wild type, penA: wild type, ponA: wild type, porB: wild type, rpsJ: wild type, tetM plasmid: no)”: the MIC was 0.12 µg/mL in assay [1]; 0.25 µg/mL in assay [2]; ≤ 0.015 µg/mL in assay [3]; 16 µg/mL in assay [4]; ≤ 0.002 µg/mL in assay [5].

Regarding “Neisseria gonorrhoeae isolate 155 (blaTEM plasmid: no, gyrA: Phe91, Gly95, mtrR promoter: wild type, parC: Arg87, Glu91, penA: ins345Asp, ponA: Pro421, porB: wild type, rpsJ: Met57, tetM plasmid: no)”, the minimum inhibitory concentration (MIC) was 0.06 µg/mL in assay [1]; 0.5 µg/mL in assay [2]; 0.25 µg/mL in assay [3]; 16 µg/mL in assay [4]; ≤ 0.002 µg/mL in assay [5].

On to “Neisseria gonorrhoeae isolate 64 (blaTEM plasmid: no, gyrA: wild type, mtrR promoter: wild type, parC: wild type, penA: ins345Asp, ponA: wild type, porB: Asp120, Ala121, rpsJ: Met57, tetM plasmid: no)”, for which the MIC amounted to 0.06 µg/mL in assay [1]; 0.5 µg/mL in assay [2]; 0.25 µg/mL in assay [3]; 16 µg/mL in assay [4]; 0.004 µg/mL in assay [5].

For the test system “Neisseria gonorrhoeae isolate 206 (blaTEM plasmid: no, gyrA: Phe91, Asn 95, mtrR promoter: wild type, parC: Arg 87, Glu91, penA: ins345Asp, ponA: Pro421, porB: wild type, rpsJ: Met57, tetM plasmid: no)”, the MIC is 0.06 µg/mL in assay [1]; 0.5 µg/mL in assay [2]; 0.25 µg/mL in assay [3]; 16 µg/mL in assay [4]; 0.004 µg/mL in assay [5].

As for “Neisseria gonorrhoeae isolate 393 (blaTEM plasmid: no, gyrA: Phe91, Asn95, mtrR promoter: -35delA, parC: Arg87, Glu91, penA: ins345Asp, ponA: Pro421, porB: wild type, rpsJ: Met57, tetM plasmid: no)”, the MIC in assay [1] came out at 1 µg/mL; in assay [2] it was 1 µg/mL; in assay [3], 1 µg/mL; in assay [4] it was 32 µg/mL; in assay [5], 0.008 µg/mL.

In the case of “Neisseria gonorrhoeae isolate 5 (blaTEM plasmid: no, gyrA: wild type, mtrR promoter: wild type, parC: wild type, penA: ins345Asp, ponA: wild type, porB: wild type, rpsJ: wild type, tetM plasmid: no)”, the minimal inhibitory concentration (MIC) was 0.015 µg/mL in assay [1]; 0.5 µg/mL in assay [2]; 0.06 µg/mL in assay [3]; 32 µg/mL in assay [4]; ≤ 0.002 µg/mL in assay [5].

As for “Neisseria gonorrhoeae isolate 442 (blaTEM plasmid: no, gyrA: wild type, mtrR promoter: wild type, parC: wild type, penA: wild type, ponA: wild type, porB: wild type, rpsJ: wild type, tetM plasmid: no)”, the minimal inhibitory concentration (MIC) in assay [1] is 0.06 µg/mL; in assay [2], 0.25 µg/mL; in assay [3], ≤ 0.015 µg/mL; in assay [4], 16 µg/mL; in assay [5], ≤ 0.002 µg/mL.

Regarding “Neisseria gonorrhoeae isolate 246 (blaTEM plasmid: no, gyrA: wild type, mtrR promoter: wild type, parC: wild type, penA: wild type, ponA: wild type, porB: wild type, rpsJ: wild type, tetM plasmid: no)”, the minimal inhibitory concentration (MIC) in assay [1] is 0.015 µg/mL; in assay [2], 0.12 µg/mL; in assay [3] it was ≤ 0.015 µg/mL; in assay [4], 32 µg/mL; in assay [5], ≤ 0.002 µg/mL.

With “Neisseria gonorrhoeae isolate 90 (blaTEM plasmid: no, gyrA: Phe91, Gly95, mtrR promoter: wild type, parC: Arg87, Glu91, penA: ins345Asp, ponA: wild type, porB: Asp120, Ala121, rpsJ: Met57, tetM plasmid: no)”, the MIC in assay [1] was found to be 0.015 µg/mL; in assay [2] it was 1 µg/mL; in assay [3], 0.25 µg/mL; in assay [4], 32 µg/mL; in assay [5], 0.004 µg/mL.
